Publication PMC12040169 (PLOS Biology, 2025)
The list shows a part of the results.

tested on: T1, C. trachomatis L2/434/Bu expressing GFP (CTL2-GFP); design: species or system HeLa; C. trachomatis total inclusion area by high-content imaging, normalised to DMSO; details: total inclusion area; 28.5 h, 10 µM; inhibitor
T1 construct: L2/434/Bu GFP intracellular growth in HeLa cells
Method in brief: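 High-content images of fixed, Hoechst-stained infected cultures supply inclusion area and count (growth) plus nuclei number (viability), complementing bulk GFP/resorufin fluorescence. MIC determination is unchanged from the primary assay.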

SMILES	% of control remaining
Cc1cc(C[C@@H]2CCC[C@H]2NCc2nc3ccccc3[nH]2)on1 [CBK284935]	87.3959
CC(C)(C)C1CCC(OC(=O)CCC(=O)Nc2nccs2)CC1 (stereo not shown) [CBK260890]	92.1801
Cc1ccc(-c2cnc(SCC(N)=O)n2-c2ccccc2)cc1 [CBK287757]	105.185
CCN(CC)C1=NC(=S)N(C)C(c2ccc(OC)cc2)S1 (stereo not shown) [CBK006804]	74.1302
Cc1cc(C)c2[nH]c(C)c(CC(=O)N(C)CCN(C)C)c2c1 [CBK282731]	105.029
CCN(CC)C(=O)c1sc2ncccc2c1NS(=O)(=O)c1cc(Cl)sc1Cl [CBK050615]	94.2998
Cc1nc(S(=O)(=O)N2CCC(C(=O)N3CCCC3)CC2)cn1C [CBK305786]	57.0951
Cc1ccc(N(Cc2cc3cccc(C)c3nc2O)C(=O)c2cccc([N+](=O)[O-])c2)cc1 [CBK265426]	84.8309
CCCNCCc1ccc(NC(=O)Nc2cc(F)cc3c2OCOC3)cc1 [CBK173887T]	72.6454
CC(=O)Nc1cccc(C(=O)OCC(=O)N2CCCC2)c1 [CBK306395]	70.8017
O=C(NCCc1cccs1)C(c1ccccc1)c1ccccc1 [CBK270275]	109.146
O=C(CC1CCCO1)NS(=O)(=O)c1cccc(-c2nnco2)c1 (stereo not shown) [CBK305267]	62.9447
COc1ccc(C2C=C(c3ccc(OC)c(OC)c3)Nc3ncnn32)c(OC)c1 (stereo not shown) [CBK293934]	101.592
CCC(C)NC(=O)C1CCC(=O)N1Cc1ccc(C)cc1 (stereo not shown) [CBK294470]	117.032
CC(C)(C)OC(=O)N1CC2(C1)N=C1C=C(C(C)(C)C)ON1[C@H]1[C@H](O)[C@H](O)C[C@H]12 [CBK303240]	63.761
Cc1ccc(S(=O)(=O)NC(C)(C)CSc2nncn2N)cc1 [CBK266297]	127.055
CCOc1cc(C)ccc1S(=O)(=O)n1nnc2ccccc21 [CBK287796]	69.1659
CCNC(=O)N1CCN(CCCCN2C(=O)CC3(CCCC3)CC2=O)CC1 [CBK024999C]	99.2428
COC(=O)CCC(=O)N1CCC2(CCN(Cc3ccccc3)C2)C1 (stereo not shown) [CBK136852]	90.2453
Cc1ccccc1NC(=O)c1cnc2sccn2c1=O [CBK287447]	103.316
CC(NS(=O)(=O)c1ccccc1Cl)C(=O)N1CCCCC1C (stereo not shown) [CBK305797]	52.0537
COc1cc(F)ccc1S(=O)(=O)NC1CC(C)(C)NC(C)(C)C1 [CBK266428]	94.2991
Cc1nnc(CN(C)C2CCN(CCCc3ccccc3)C2)n1C (stereo not shown) [CBK304000]	81.322
O=C(CSc1nnc(-c2cccnc2)o1)c1ccccc1 [CBK068446]	2.65
C=CCNC(=O)[C@H]1C=CCN1C(=O)Nc1ccccc1Cl [CBK282348]	73.5236
COc1ccc(-c2noc(CNC(=O)Cc3ccc(-c4ccccc4)cc3)n2)cc1 [CBK269272]	107.372
O=C(CN(Cc1ccc(F)cc1)S(=O)(=O)c1ccc(Cl)cc1)Nc1ccc2c(c1)OCCO2 [CBK265346]	85.1936

SMILES	% of control remaining
CC(=O)N[C@H]1CO[C@H]2[C@@H]1OC[C@@H]2n1nnnc1Oc1ccc(-n2ccnc2)cc1 [CBK289487]	87.1383
O=C(O)C1CCN(C(=O)CCn2ccc3cc(Br)ccc32)CC1 [CBK286617]	104.943
Cc1cccc2c1CC(=O)NC21CCN(Cc2ccccc2)CC1 [CBK039819]	99.9934
COC(=O)C1(Cc2ccccc2)CN(C(=O)OC(C)(C)C)CCC1=O (stereo not shown) [CBK003486]	105.11
CCN1CCN(C(=O)CN(Cc2ccc(F)cc2)S(=O)(=O)c2ccccc2)CC1 [CBK266612]	97.0213
CSc1nnc(-c2ccc(C(C)(C)C)cc2)n1Cc1ccco1 [CBK017071]	88.4057
O=C(Nc1nnc(SCc2cc(=O)n3nc[nH]c3n2)s1)c1ccc(F)cc1 [CBK294399]	119.411
COc1ccc2nc(N3CCc4ccccc4C3)sc2c1 [CBK287493]	108.601
Cc1ccc(SCS(=O)(=O)c2ccc(C)cc2)cc1 [CBK026853]	45.0893
Cc1cc(-c2cn3ccnc3c(N3CCOCC3)n2)cc(C)c1O [CBK066691]	130.454
Cc1ccnc(SCC(N)=O)n1 [CBK028874]	59.5738
CCN1CCCC1Cn1c(=S)[nH]c2ccccc2c1=O (stereo not shown) [CBK267849]	120.742
O=C(c1cccc([N+](=O)[O-])c1)c1ccc2c(c1)C(=O)N(Cc1cccnc1)C2=O [CBK262784]	115.359
O=C1CC(N2CCN(c3ccc(S(=O)(=O)N4CCOCC4)cc3)CC2)C(=O)N1Cc1ccccc1 (stereo not shown) [CBK268713]	95.1036
COCCCNC(=O)COc1cc(C)ccc1C [CBK264625]	91.6793
CC(=O)Nc1nc2[nH]c(C)c(Cc3ccccc3)c(=O)n2n1 [CBK288202]	95.4357
CC(=O)NC1(c2ccc(F)cc2)CCN(Cc2cccnc2)CC1 [CBK283610]	93.235
CCn1c(=O)n(CC(=O)N2CCc3ccccc32)c2cccnc21 [CBK283826]	108.137
C[S+]([O-])CCNC(=O)c1cnn(-c2ccc(F)cc2)c1 (stereo not shown) [CBK283245]	76.2774
O=C([C@@H]1C[C@@H](O)[C@H](O)[C@@H]2NC(=S)N(c3ccc4c(c3)OCO4)[C@@H]21)N1CCCCC1 [CBK288945]	101.582
COc1ccc([C@@]23CC[C@@H](NC(=O)c4ccc(C(F)(F)F)c(F)c4)C[C@@H]2CN(C)C3)cc1OC [CBK082742C]	89.8223
CC(=O)NC[C@H]1CN(c2ccc3c(c2)CCN(C(C)=O)CC3)C(=O)O1 [CBK018491]	2.743
CCC(C)Nc1nc(SCC(=O)OC)nc(N(C)C)n1 (stereo not shown) [CBK269780]	65.6865
COc1ccc2cc(C(=O)N3CCn4cncc4C3)n(C)c2c1 [CBK304362]	52.9987
CCC(CO)NCc1ccc(-c2ccccc2)cc1 (stereo not shown) [CBK268082C]	95.2639
CN(C)C(CNCc1cn(C)nc1-c1cccnc1)c1ccccc1 (stereo not shown) [CBK304511]	56.8761
COc1ccc(CN2CCCN(C(=O)c3ccc(F)cc3Br)CC2)cc1 [CBK251752]	71.4332

SMILES	% of control remaining
Cc1cccc(C)c1NC(=O)CN1CCC(Oc2cncc(OCc3cccnc3)n2)C1 (stereo not shown) [CBK084460]	81.6888
COC(=O)[C@H]1CN(C(=O)c2ccco2)C[C@@H]1c1ccc(F)cc1 [CBK283733]	92.7721
O=C(NC(=S)Nc1cccc(-c2nc3ncccc3o2)c1)c1cc([N+](=O)[O-])ccc1N1CCOCC1 [CBK268756]	89.992
N#Cc1ccc(Oc2ccc(C(=O)C(=O)c3ccccc3)cc2)cc1C#N [CBK260959]	88.8469
CCOC(=O)c1c(-c2ccc(C)o2)csc1NC(=O)CN1C(=O)c2ccccc2C1=O [CBK267699]	90.25
Cc1c(Nc2nc3nonc3nc2Nc2cccc(Cl)c2)c(=O)n(-c2ccccc2)n1C [CBK263073]	82.0514
COC(=O)CCc1ccc(S(=O)(=O)N2CCN(Cc3cc(C)c(O)c(C)c3)CC2)cc1 [CBK062814]	108.331
CCN(CC)C(=O)c1sccc1NS(=O)(=O)c1cc(Br)c(Cl)s1 [CBK004599]	67.1422
CC(O)CNCCNc1c(Cl)cccc1[N+](=O)[O-] (stereo not shown) [CBK262802C]	104.685
CC(C(=O)N1CCC(O)(c2ccccn2)CC1)c1ccccc1 (stereo not shown) [CBK282396]	121.962
CCCCCn1c(Cc2ccccc2)n[nH]c1=O [CBK013059]	75.1263
CCCCOc1ccc(-c2nnn(CC(=O)Nc3ccccc3)n2)cc1 [CBK070609]	95.3207
COc1ccc(Br)cc1C1CC(=O)Nc2c(-c3cccc(F)c3)csc21 (stereo not shown) [CBK294442]	23.1085
COc1ccc(-n2c(Cc3ccccc3)nnc2SCC(=O)c2ccccc2)cc1 [CBK265989]	69.0548
O=C(CSCc1ccccc1Br)Nc1ccccc1-c1ccccc1 [CBK265959]	104.647
CCN(CC)C(=O)[C@@H](C)C1CC[C@@]2(C)CC[C@H](NC(=O)C3CC3)[C@@H](C)[C@@H]2[C@H]1O (stereo partly shown) [CBK289443]	109.417
COc1ccc(C(=O)N2CCN(c3nc4c(s3)c(C)nn4C)CC2)cc1 [CBK307457]	62.4272
CCCC/C=C/c1cncc(N[C@@H](C)c2ccccc2)n1 [CBK065472]	89.4697
CC(C)NC(=O)c1sc2ccccc2c1C1CN(Cc2cccc3ncccc23)CCO1 (stereo not shown) [CBK285879]	94.5746
C=C(C)CN1CCN(C(=O)c2c(C)oc3ccc(O)cc23)CC1 [CBK282626]	96.918
Cc1ccc(CN(CCN(C)C)Cc2c(C)nc3sccn23)o1 [CBK283229]	103.016
CC1CCC(C(N)=O)CN1c1cc(=O)n2ccccc2n1 (stereo not shown) [CBK304835]	96.9735
O=C(O)C1CCCN1C(=O)NCc1c(Cl)cccc1Cl (stereo not shown) [CBK161383]	41.4761
CN1C(=O)CN(C2CCCCC2)C1=O [CBK116320]	119.744
O=C(C1=C(O)C(=O)N(CCCN2CCOCC2)C1c1cccnc1)c1cccs1 (stereo not shown) [CBK264555]	116.619
